# ChEMBL document CHEMBL1157539, “Thousands of chemical starting points for antimalarial lead identification” (Nature, 2010)
# Whole data set: some 13,000 compounds, median “IFI” near 4, cut for the highest 2% near 17. The list shows a part of the results.
# Assay: GSK_TCMDC: Inhibition Frequency Index (IFI). The number of non-kinase HTS assays where a compound showed > 50 % inhibition, expressed as a percentage of the number of such assays in which the compound was tested (-0 is zero)
# Format: functional
row,Structure (SMILES),IFI [%]
1,CCN(CC)/C(=N/C(=N)Nc1ccc(Cl)cc1)NCCCCCCCCN/C(=N\C(=N)Nc1ccc(Cl)cc1)N(CC)CC,5.8
2,CCOC(=O)c1ccc(NCc2ccccn2)cc1,-0
3,COCCNC(=O)C(CNC(=O)c1ccc2c(c1)OCO2)NC(=O)c1ccc(-c2ccccc2)cc1 (stereo not drawn),1.49
4,CCOc1ccccc1CNc1nccc(NCCc2cn(C)c3ccccc23)n1,7.69
5,O=C(Nc1cccc(CN2CCCN(Cc3cccc(O)c3)CC2)c1)c1ccc2ccccc2c1,3.42
6,CN(CCN)Cc1cccc(-c2cccc(-c3nc4cc(F)ccc4[nH]3)c2)c1,3
7,CCC(C)NC(=O)Nc1ccc(-c2cccc(-c3nc4ccccc4[nH]3)c2)cc1 (stereo not drawn),7.77
8,CN(CCc1ccccn1)Cc1ccc(-c2ccc(-c3nc4ccccc4[nH]3)s2)cc1,4.1
9,COc1ccc(F)cc1-c1ccc(C(=O)N2CCCN(c3ccc(C(F)(F)F)cn3)CC2)cc1,9.33
10,CN1CCN(CCCNCc2cccc(-c3ccc(CNCCc4ccccc4)cc3)c2)CC1,2.88
11,CC(C)COc1ccc(C(O)C(CN2CCCCC2)c2ccccc2)cc1 (stereo not drawn),0.74
12,CCOC(=O)c1ccc(-c2cnoc2-c2cc(CC)c(OC)cc2O)o1,2.27
13,COc1ccc(-c2cccc(NC(=O)c3cccc(Cl)c3)c2)cc1CN(C)CCN(C)C,5.83
14,CC(C)C[C@@H]1C(=O)N[C@H](C2Cc3ccccc3C2)C(=O)N1[C@@H](C(=O)O)c1ccc(F)cc1F,0.75
15,Cc1noc(C)c1-c1cccc(CNCc2ccc(-c3ccc(-c4nc5cccc(C)c5[nH]4)cc3)cc2)c1,7.77
16,c1ccc(CN2CCN(CCNc3c4ccccc4nc4ccccc34)CC2)cc1,6.82
17,COc1ccc(N2CCc3c(-c4cccc5cnccc45)cc(C)nc32)c(C)c1,15.9
18,O=C(NCCCCN1CCN(c2cccc3c2CCCC3)CC1)c1ccc(NC(=O)c2ccc(Cl)cc2)cc1,6.78
19,O=C(NCCCCN1CCC(c2ccc3ccccc3c2O)CC1)c1ccc(NC(=O)c2ccc(Cl)cc2)cc1,9.26
20,COc1ccc(C2CC(=O)C3=C(C2)NC(C)=C(C(=O)OC(C)C)C3c2ccc(O)cc2)cc1OC (stereo not drawn),0.74
21,COc1ccc2nc(-c3ccccc3)cc(NCCN(C)C)c2c1,0.75
22,CC(=O)Nc1ccc(CN2CCCN(c3cc(NC(=O)c4cccc(C)c4)ccn3)CC2)cc1,10

row,Structure (SMILES),IFI [%]
1,CC(C)C[C@H](NC(=O)c1ccc(OCCN2CCOCC2)cc1)C(=O)N[C@H](/C=N/N(C)C(=O)c1ccccc1)CCc1ccccc1,2.75
2,COc1ccccc1C1CCN(C2CCC(NC(=O)c3cc(-c4ccc(Cl)cc4)cs3)CC2)CC1 (stereo not drawn),16.4
3,O=C(C=Cc1ccc(C(=O)Nc2ccc(C3=NCCN3)cc2)cc1)Nc1ccc(C2=NCCN2)cc1,8.89
4,O=c1[nH]c2ccc(Nc3nccc(NCCc4ccccc4)n3)cc2[nH]1,0
5,Cc1cc(N2CCCCC2)nc2ccc(NC(=O)c3cc(=O)c4ccccc4o3)cc12,0.68
6,c1ccc2cc3c(Nc4ccc(N5CCCCCC5)cc4)ccnc3cc2c1,2.24
7,COC(=O)c1ccc(C2OC3(C(=O)c4ccccc4C3=O)C(OC)=C2Cl)cc1C(C)=O (stereo not drawn),0.75
8,CCn1ccc2c(N3CCCCS3(=O)=O)cc(C(=O)N[C@@H](Cc3ccccc3)[C@H](O)CNC3CCCCC3)cc21,4.35
9,Cc1cc(Nc2ccc(Cl)c(Cl)c2)n2nc(C)nc2n1,1
10,O=C(/C=C/c1ccc(Cl)c(Cl)c1)NCCCCN1CCCN(C(=O)Nc2ccc(Cl)c(Cl)c2)CC1,7.32
11,Cc1nnc(-c2ccc3ccccc3c2)c2cn(-c3cccc([N+](=O)[O-])c3)nc12,-0
12,C[C@H](NC(=O)c1c(CN2CCN(C(=O)C(C)(C)C)CC2)c(-c2cccs2)nc2ccccc12)C1CCCCC1,4.35
13,COc1cc(-n2c(CN3CCCC3)nc3cc(-c4ccc(Cl)cc4)sc3c2=O)ccc1OCCN1CCCC1,6.99
14,CCCCCCCc1c(C)nc2cccc(OC)c2c1O,12.5
15,O=C(NC1CC1)c1cnc(N2CCN(Cc3ccc(Cl)cc3)CC2)c(Cl)c1,8.33
16,COc1ccc(C(C(=O)NC2CCN(C[C@H](O)c3ccnc4ccc(OC)cc34)CC2)N2CCN(Cc3ccccc3)CC2)cc1 (stereo partly drawn),2.08
17,Nc1cccc(CNCc2cccc(-c3ccc(-c4nc5ccccc5[nH]4)cc3)c2)c1,3.81
18,Cc1cnc(Nc2cccnc2)nc1Nc1ccccc1C(=O)NC(C)C,-0
19,COc1ccc2ccccc2c1C=NNc1ccnc2cc(Cl)ccc12,2.84
20,CCNc1cc(C(=O)N[C@@H](Cc2ccccc2)[C@H](O)CNC(C)(C)CSCC(C)C)cc(N2CCCC2=O)c1,2.99
21,CN(C)CCC1CCCc2ccc(NC(=O)Nc3ccc(-c4ccncc4)c4ccccc34)cc21 (stereo not drawn),6.06
22,CCN1CCN(Cc2ccc(NC(=O)c3cc4ccc5cccnc5c4[nH]3)cc2)CC1,4.62

row,Structure (SMILES),IFI [%]
1,Cc1cc(N[C@@H](CC(C)C)C(=O)NCCc2ccccc2)nc(NCCc2ccc(F)cc2)n1,6.82
2,CN1CCC(NCc2ccc(-c3ccc(S(=O)(=O)NCc4ccccc4)s3)cc2)CC1,8.74
3,Cc1nnsc1C(=O)Nc1cccc(-c2cccc(-c3nc4cc(F)ccc4[nH]3)c2)c1,6.42
4,Cc1ccc(Cc2c(N)nc3nc(N)nc(N)c3c2C)cc1,3.03
5,CCNc1cc(C(=O)N[C@@H](Cc2ccccc2)[C@H](O)CNCCC(C)(C)C)c(F)c(N2CCCCS2(=O)=O)c1,1.47
6,CN(C)CCC1CCN(CCS(=O)(=O)c2cccc(Nc3ccc(-c4ccsc4)cn3)c2)CC1,11.1
7,Cc1ccc(-c2cc(C(=O)Nc3ccc(S(=O)(=O)N(C)Cc4ccccc4)cc3)[nH]n2)c(O)c1,4.29
8,CN(C)c1ccc(CN2CCC(NC(=O)c3ccc(-c4cccc(F)c4)s3)CC2)cc1,10.5
9,CCOC(=O)c1nc(-c2ccc(Cl)cc2)[nH]c1NC(=S)NCCCN1CCOCC1,1.53
10,Cc1ccc(NC(=O)c2ccc(CN3CCCN(CC4CCCCC4)CC3)cc2)cc1C,9.09
11,COc1cc2c(cc1OC)CC(NCCCCCCNCCc1ccc(Cl)cc1)CC2 (stereo not drawn),8.03
12,O=C(NC1CCCCC1)N(Cc1ccc(-c2ccc(CNCc3ccc4c(c3)OCO4)cc2)cc1)C1CCN(Cc2ccccc2)CC1,6.87
13,Cc1ccccc1Nc1nc(Nc2ccccc2)c2ccccc2n1,3.65
14,CC1(C)CCCN(c2ncc(-c3cccc(CNCc4ccccc4O)c3)cn2)C1,8.14
15,CC(C)c1cn2c3c(cc(C(=O)N[C@@H](Cc4ccccc4)[C@H](O)CNC4CCOCC4)cc13)N(C)S(=O)(=O)CC2,4.44
16,Cc1ccc(C(C)C)c(Oc2ccc3nc(N)nc(N)c3c2)c1,15.4
17,O=C(NC1CCN(CCC(NC(=O)c2ccccc2)c2ccc(Cl)c(Cl)c2)CC1)c1ccc(Cl)cc1 (stereo not drawn),4.76
18,O=C(NCCCCN1CCC(c2ccc3c(c2OCCCO)CCCC3)CC1)c1ccc(-c2ccc(C(F)(F)F)cc2)c(CO)c1,10.1
19,C=Cc1cc(NC(=O)N2CCc3cc(OC)c(C(F)(F)F)cc32)cc(-c2cccnc2)c1,2.86
20,Cc1cc(O)c2c3c1C(=O)C=C1C3c3c(c(O)cc(O)c3C(=O)C1(C)C)C2=O (stereo not drawn),13
21,CC(C)(C)c1nn(-c2ccccc2)c2[nH]c(=O)c(CNCc3ccc4c(c3)OCO4)cc12,4.48
22,CCCNc1ccc2nccc(CCN3CCC(NCc4ccc5c(c4)NC(=O)CS5)CC3)c2n1,3.13

row,Structure (SMILES),IFI [%]
1,CCCCc1ccccc1NS(=O)(=O)c1ccc(OC)c(N2CCNCC2)c1,2.86
2,Cc1ncccc1C(=O)Nc1ccc(-c2cccc(-c3nc4cccc(C)c4[nH]3)c2)cc1,4.63
3,CCn1c(-c2nonc2N)nc2cnc(Oc3cccc(NC(=O)c4ccc(OCCN5CCCCC5)cc4)c3)cc21,4.76
4,CCc1cc2c3c(N)nc(N)nc3ccc2n1C(C)CC (stereo not drawn),8.57
5,O=C(Nc1ccc(C(F)(F)F)cc1)c1cccc(S(=O)(=O)NCC2CCCN(CC3CCCCC3)C2)c1 (stereo not drawn),4.76
6,Cn1nc(-c2cccc(CN[C@@H]3CCc4ccc(O)cc43)c2)c2cnc(NCCCN3CCCC3)nc21,3.85
7,SC(=Nc1ccc(Cl)c(Cl)c1)NN=Cc1ccccn1,6.62
8,Cc1cccc(CNc2nc(C)cc(N[C@@H](CC(C)C)C(=O)NCCOc3ccccc3)n2)c1,7.5
9,Clc1ccc(OCCC2CCN(CCCCCCCN3CCC(CCOc4ccc(Cl)c(Cl)c4)CC3)CC2)cc1Cl,18.6
10,Oc1cc(NC[C@H]2CCC[C@@H]2NCc2cc(Br)cc(Br)c2)nc2ccccc12,2.99
11,Oc1ccccc1N1CCN(c2ccc(-c3nc4ccccc4[nH]3)cn2)CC1,10.2
12,COc1ccc(N2CCN(CCCN3CCN(C(=O)c4ccc(/C=C/c5ccc(Cl)c(Cl)c5)cc4)CC3)CC2)c(OC)c1,7.96
13,O=C(CCC1CCCC1)N(Cc1ccc(-c2ccc(CNCCc3ccccn3)cc2)cc1)CC1CCCCN1 (stereo not drawn),5.15
14,CC(C)(C)c1nn(-c2ccccc2)c2[nH]c(=O)c(CNCCc3ccccc3)cc12,4.71
15,CCCN(CCC)C(=O)c1cc(C(=O)N[C@@H](Cc2ccccc2)[C@H](O)CNC(C)(C)c2cccc(C(F)(F)F)c2)cc(N2CCCCS2(=O)=O)c1,5.67
16,CCCCCCCCNCCCSCCCNCCCCCCCC,14.3
17,CCC(=O)Nc1ccc(Nc2nc(C)cc(N3CCCC3)n2)cc1,7.84
18,N#CC1(CCCNCCc2ccc(O)cc2)CCCc2c(O)cccc21 (stereo not drawn),-0
19,OCCN1CCN(Cc2ccc(-c3ccc(-c4nc5cc(F)ccc5[nH]4)cc3)cc2)CC1,8.91
20,CN(CCCCCN1CCC(NC(=O)Nc2ccc(C(F)(F)F)cc2)C1)C(=O)/C=C/c1ccc(Cl)c(Cl)c1 (stereo not drawn),4.26
21,CCOc1cc(CC)ccc1C1CCN(CCN2CCC(NC(=O)c3ccc(-c4ccc(C#N)cc4)cc3)CC2)CC1,6.36
22,O=C(NCCCNc1nc2ccccc2[nH]1)c1cccc(OC(F)(F)F)c1,1.46
